Test results taken from publication PMC12136788.
The other results are listed elsewhere or left out.

B1: chr17:21001410:21001511:-|3pUTR|ENSG00000124422|msi1_unk|FALSE|overlapping (ssRNA)
RNA: GGGAGUUCUACAGUCCGACGAUCUAGUACAACUUUUAGACACAGAAAUCUGAAUGACAUAUAUUGUUCUGUGUCAAGAAACUUAGAUUUUUUUUUUAACUAUUUAAAAACGUGAAACCUAUUCUUAGCUCACAGGCCAUGGAGCAACAGAGGAUUGAGCAUCA
B2: chr22:41177882:41177989:+|CDS|ENSG00000100393|unk|FALSE|unique (ssRNA)
RNA: GGGAGUUCUACAGUCCGACGAUCCAAAACCUUUUGCGGACUCUCAGGUCUCCCAGCUCUCCCCUGCAGCAGCAACAGGUGCUUAGUAUCCUUCACGCCAACCCCCAGCUGUUGGCUGCAUUCAUCAAGCAGCGGGCUGCCAAGCAACAGAGGAUUGAGCAUCA
B3: ENSG00000136451:be:win_3351|3pUTR|ENSG00000136451|bound_else_gene|NA|bound_elsewhere_windowed (ssRNA)
RNA: GGGAGUUCUACAGUCCGACGAUCGAAGGCAACACAUUCCUACACUUUUAAUGUAUAUGUUUGUUAUAAUGUCCAUGUAAACAUGCCCUAUGUUUGUGCCUUUUAAUUAGUUUGUCUCAAUAAACAAAAUGUAGAGAAAAAUAUCAACAGAGGAUUGAGCAUCA
B4: ENSG00000124766:be:win_3501|3pUTR|ENSG00000124766|bound_else_gene|NA|bound_elsewhere_windowed (ssRNA)
RNA: GGGAGUUCUACAGUCCGACGAUCAACUUGUAAACCACAUCUUUUUUGCACUUUUUUUAUAAGCAAAAACGUGCCGUUUAAACCACUGGAUCUAUCUAAAUGCCGAUUUGAGUUCGCGACACUAUGUACUGCGUUUUUCAUUCUCAACAGAGGAUUGAGCAUCA
B5: chr11:35229396:35229958:+|3pUTR|ENSG00000026508|msi1|total|mutant (ssRNA)
RNA: GGGAGUUCUACAGUCCGACGAUCAUAUGUAUUCCUGAUCGCCAACCUUUCCCCCACCAGCUAAGGACAUUUCCCAGGGUUAACCGGGCCUGGUCCCUGGGAGGAAAUUUGAAUGGGUCCAUUUUGCCCUUCCACCGCCUAAUCCAACAGAGGAUUGAGCAUCA
B6: chr18:3457781:3457936:+|CDS|ENSG00000177426|unk|total|mutant (ssRNA)
RNA: GGGAGUUCUACAGUCCGACGAUCCAACACUCCUCCCCCUACUCCACCGGACCUCAACCAGGACUUCAGUGGAUUUCAGCUUCCCGUGGAUGUUGCACUCAAACGGGCUGCAGAGAUGGAGCUUCAGGCAAAACUUACAGCUUACAACAGAGGAUUGAGCAUCA
B7: chr4:140442261:140443444:-|three_prime_utr|ENSG00000205301|control|control|control (ssRNA)
RNA: GGGAGUUCUACAGUCCGACGAUCCUCUGUAAUACCUGGAACCUCAGAUAACCUUGAUAUCUAAUGGCAUGUUUCAGAAAUUGUAGUAAUGAAAAUACAUAAUUAUCUAGCAGAUAAGUAAACAAUGCAUAAACUAGUAGACUUCAACAGAGGAUUGAGCAUCA
B8: chr11:102693905:102694065:-|CDS|ENSG00000137675|control|control|control (ssRNA)
RNA: GGGAGUUCUACAGUCCGACGAUCCUUGCCAGAUUAUCCCAAAUCCAUCCAUACAUUAGGUUUUCCAGGACGUGUGAAGAAAAUAGAUGCAGCCGUCUGUGAUAAGACCACAAGAAAAACCUACUUCUUUGUGGGCAUUUGGUGCAACAGAGGAUUGAGCAUCA
B9: ENSG00000124766:be:win_2101|3pUTR|ENSG00000124766|bound_else_gene|NA|bound_elsewhere_windowed (ssRNA)
RNA: GGGAGUUCUACAGUCCGACGAUCUGCCCCCUCUGCAGCCGGAGGAGGAGAUGUUGAGGGGAGGAGGCCAGCCAGUGUGACCGGCGCUAGGAAAUGACCCGAGAACCCCGUUGGAAGCGCAGCAGCGGGAGCUAGGGGCGGGGGCAACAGAGGAUUGAGCAUCA
B10: chr4:102887774:102887875:+|3pUTR|ENSG00000145354|msi1|FALSE|unique (ssRNA)
RNA: GGGAGUUCUACAGUCCGACGAUCUUGGUUUUGAUAAUCUGAAGUGUUUUUUUCUCGUUUUGGCCUUCCAAACUGCAUUUGGUUAGGUGAAUUAAGAAAAAUAUUGCCAUCAAGAAUUACUUGUGUUUUCACAGAGAUAGACUCCAACAGAGGAUUGAGCAUCA
B11: chr5:38883864:38883977:+|CDS|ENSG00000145623|unk|FALSE|unique (ssRNA)
RNA: GGGAGUUCUACAGUCCGACGAUCGUUUUCCCUAAAGAUAAGCUGGUGGAAGAAGGCACCAAUGUUACCAUUUGUUACGUUUCUAGGAACAUUCAAAAUAAUGUAUCCUGUUAUUUGGAAGGGAAACAGAUUCAUGGAGAACAACAACAGAGGAUUGAGCAUCA
B12: chr14:90848141:90848242:-|3pUTR|ENSG00000100784|unk|FALSE|unique (ssRNA)
RNA: GGGAGUUCUACAGUCCGACGAUCCGAUAACUGGUACUGCCUUUGAUUAAAGGUGAGCUAUAUGGAGUUAAGCAUUUUUAUACUAGUAACUAUUUAUUGAGAAUUUUCAGAAUUCUAUAGCUACUUGUCUUUAACAGUUAUAAGCAACAGAGGAUUGAGCAUCA
B13: chr11:95131931:95132033:+|3pUTR|ENSG00000149218|unk|total|mutant (ssRNA)
RNA: GGGAGUUCUACAGUCCGACGAUCGGACCGGUGGCUGAGACCCACUGCCCUGAGCUACCCGUGUGGCUGUGCCUGUGGGUCUCCCGAACCAUCUGCAUUGGACGUGAAGCCACAGCAGGUGGCUGGACUGCUGGCCUGUUCCUACAACAGAGGAUUGAGCAUCA
B14: chr20:2117184:2117286:+|CDS|ENSG00000125834|unk|FALSE|unique (ssRNA)
RNA: GGGAGUUCUACAGUCCGACGAUCGCUCCUGGGGACCUACAUUAAACAGGGGACUGAGAUCGUCCCUGUUGGUGAGGCGCUGCUAGAAAACCCAAAGAUGGAGUUGCACAUCCCCCAAAAACGCAGGACUUCCAUGUCUGAGGGCAACAGAGGAUUGAGCAUCA
B15: chr16:67638976:67639077:+|3pUTR|ENSG00000102974|unk|total|mutant (ssRNA)
RNA: GGGAGUUCUACAGUCCGACGAUCAAACACUUUUUUCUUCUGUGUAUUGCUUUUAAGAGAGCCAUCAGUCCGCUAUCAGACUCCCGGUUGAUGCAUUUUGUACUCCGCUGUACUGUGUGAUAUUUUUCAUUAUUUCCGGACGCCCAACAGAGGAUUGAGCAUCA
B16: chr1:28742582:28742694:+|CDS|ENSG00000198492|unk|FALSE|bound_elsewhere (ssRNA)
RNA: GGGAGUUCUACAGUCCGACGAUCAGCAACGGAGAGCCCCACUUCCUACCAGAUGCAAUGUUUGGGCAACCAGGAGCCCUAGGUAGCACUCCAUUUCUUGGUCAGCAUGGUUUUAAUUUCUUUCCCAGUGGGAUUGACUUCUCACAACAGAGGAUUGAGCAUCA
B17: ENSG00000107863:be:win_2401|CDS|ENSG00000107863|bound_else_gene|NA|bound_elsewhere_windowed (ssRNA)
RNA: GGGAGUUCUACAGUCCGACGAUCUUGGCUUCCAUCCCAUUUAUAGAUGAACCAACUAGCCCUAGCAUUGAUCAUGAUAUUGCACAUAUCCCUGCCUCUGCUGUUAUAUCAGCCUCUACCUCUCAGGUCCCCUCCAUAGCAACACAACAGAGGAUUGAGCAUCA
B18: chr14:100881274:100881386:-|CDS|ENSG00000254656|unk|total|mutant (ssRNA)
RNA: GGGAGUUCUACAGUCCGACGAUCCGCAGGCAGCAGCAUCACGACAGCCAUCACCCAGCUGCUCACCCAGAUGCCCGCUCUCGCCGGUGCAAACACCAUCCCAGCCCAGGAGCUGGCUGAGCUGUUCCUGGGCCCUGGCCGCUGCAACAGAGGAUUGAGCAUCA
B19: chr19:21971193:21974807:-|CDS|ENSG00000160321|control|control|control (ssRNA)
RNA: GGGAGUUCUACAGUCCGACGAUCCACAAGAAAAUUCAUACUGGAGAGAAACCCUACAAAUGUGAAGAAUGUGGCAAAGCCUUUAGUACGUUCUCAAUCCUCACUAAACAUAAGGUAAUUCAUACUGGAGAGAAACCCUACAAACAACAGAGGAUUGAGCAUCA
B20: chr6:145799413:145799514:-|3pUTR|ENSG00000118496|msi1|FALSE|bound_elsewhere (ssRNA)
RNA: GGGAGUUCUACAGUCCGACGAUCUUAUCUCACAUACUUACAACUCAACACACAGAGUGACCAUGUGCAGCUUUCUUUUUUGUUAGAUGCCACAUCCGAAGACUCAUCGCAGUGUGUUAUAUGACAGGACAAAGCAAAAACAAACAACAGAGGAUUGAGCAUCA
B21: chr10:17315694:17315795:-|3pUTR|ENSG00000148488|unk|FALSE|unique (ssRNA)
RNA: GGGAGUUCUACAGUCCGACGAUCCUUCUUCCUCCCUGUCCAUCCCACCCUCGUCCCCAGAAAAUUCCUAAUCUGUUUUUCUAUAGACAUUUACAUUUUUACACUAUAGACUGUUUACAUUUUUUAGAAUUUUAUAUAAAUGGACAACAGAGGAUUGAGCAUCA
B22: chr9:101390585:101390694:-|CDS|ENSG00000136897|unk|FALSE|unique (ssRNA)
RNA: GGGAGUUCUACAGUCCGACGAUCUAAUUGGCAAGACAUCUCCCUGGAAGAUAGUCGUCUAAAGUUCAAUCUUCUGGCUCAUUUAGCUGAUGACUUGGGUCAUGUAGUCCCUAACUCCAGACUCCACCAGAUGUGCAGGGUUAGCAACAGAGGAUUGAGCAUCA

target: MSI1 full-length (mouse, UniProt Q61474 1-362); assay: nsRBNS (natural sequence RNA bind-n-seq); RBNS binding buffer (assumed for nsRBNS): 25 mM Tris pH 7.5, 150 mM KCl, 3 mM MgCl2, 0.01% Triton X-100, 500 ug/ml BSA, 20 U/ml SUPERase-In, 4 C; UNK is unkempt and MSI1 is Musashi-1; names of the RNAs are library labels; protein concentration not given here; high values mean tight binding
UniProt Q61474, sequence (Q61474 whole entry): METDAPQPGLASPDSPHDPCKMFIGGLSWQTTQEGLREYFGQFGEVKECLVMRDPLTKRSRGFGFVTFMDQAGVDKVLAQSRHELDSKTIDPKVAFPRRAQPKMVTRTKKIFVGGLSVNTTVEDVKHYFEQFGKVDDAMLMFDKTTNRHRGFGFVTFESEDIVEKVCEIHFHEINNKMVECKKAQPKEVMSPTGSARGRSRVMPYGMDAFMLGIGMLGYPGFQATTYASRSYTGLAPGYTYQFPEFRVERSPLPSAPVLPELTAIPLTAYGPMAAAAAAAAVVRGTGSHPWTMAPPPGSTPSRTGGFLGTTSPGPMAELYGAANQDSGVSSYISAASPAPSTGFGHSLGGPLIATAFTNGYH

| Binder | binding signal |
| --- | --- |
| B1 | 4.13 enrichment R |
| B2 | 0.639 enrichment R |
| B3 | 4.72 enrichment R |
| B4 | 0.411 enrichment R |
| B5 | 0.401 enrichment R |
| B6 | 0.52 enrichment R |
| B7 | 4.02 enrichment R |
| B8 | 0.487 enrichment R |
| B9 | 0.718 enrichment R |
| B10 | 0.272 enrichment R |
| B11 | 0.298 enrichment R |
| B12 | 2.7 enrichment R |
| B13 | 0.283 enrichment R |
| B14 | 0.66 enrichment R |
| B15 | 0.321 enrichment R |
| B16 | 0.505 enrichment R |
| B17 | 4.65 enrichment R |
| B18 | 0.367 enrichment R |
| B19 | 0.37 enrichment R |
| B20 | 0.29 enrichment R |
| B21 | 10.8 enrichment R |
| B22 | 0.481 enrichment R |
